# Experimental data taken from ChEMBL document CHEMBL1157539, “Thousands of chemical starting points for antimalarial lead identification” (Nature, 2010).
# Over roughly 13,000 compounds, “IFI” has its median near 4; the highest 2% begin near 17. The list shows a part of the results.
# Test: GSK_TCMDC: Inhibition Frequency Index (IFI). The number of non-kinase HTS assays where a compound showed > 50 % inhibition, expressed as a percentage of the number of such assays in which the compound was tested (-0 is zero)
# Type: functional
row,SMILES,IFI [%]
1,COC(=O)Nc1cc(C(F)(F)F)ccc1N1CCC(CNS(=O)(=O)c2ccc(OC)cc2)CC1,7.04
2,NC12CC3CC(CC(C3)C1)C2,1.42
3,CN1CCCC1CCNc1ncc2c(-c3ccc(NC(=O)Nc4cc(C(F)(F)F)ccc4F)cc3)nn(C)c2n1 (centres undefined),9.3
4,CCCC1CCNC(C(O)c2ccnc3ccc(OC)cc23)C1 (centres undefined),0.79
5,COc1ccc(-n2cc(CNCCCn3ccnc3)c(-c3cccc(F)c3)n2)cc1,12.2
6,CC(C)Cc1cn(-c2nc(-c3nc4ccccc4[nH]3)cs2)c2cc(Cl)ccc12,1.18
7,COc1ccc2nccc([C@@H](O)CN3CCC(NCc4nc5c(cc4F)SCC(=O)N5)C(F)C3)c2c1 (some centres undefined),4.76
8,O=C(Nc1ccc(Cl)cc1)c1cc(Cl)ccc1NC(=O)C1(c2ccc(Cl)cc2)CCCC1,5.56
9,O=C(N/C=N/c1cc([N+](=O)[O-])c(-c2ccncc2)n1-c1ccccc1)c1cccc(O)c1,2.11
10,COc1cc(F)c2nccc([C@@H](O)CN3CCC(NCc4nc5cccc(F)c5[nH]4)CC3)c2c1,2.13
11,OC[C@H]1CCCN1CC#Cc1cc2c(Nc3ccc(OCc4cccc(F)c4)c(Cl)c3)ncnc2s1,2.92
12,COc1ccc2ncn(-c3ccc(C(N)=O)c(OCc4ccccc4C(F)(F)F)c3)c2c1,3.1
13,Cc1ccc(CON2C(N)=NC(N)=NC23CCCCC3)c2ccccc12,6.47
14,Cn1nc(-c2ccc(CNC3CCc4ccccc43)cc2)c2cnc(NCCCN3CCCC3)nc21 (centres undefined),3.85
15,COc1ccc(N2C(=O)C3C(C2=O)C2(C)c4ccccc4C3(C)c3ccccc32)c([N+](=O)[O-])c1 (centres undefined),0
16,c1csc(-c2nc(N3CCCCC3)ncc2-c2ccsc2)n1,6.82
17,NCC1CCCN1Cc1ccc(-c2ccc(-c3nc4ccccc4[nH]3)s2)cc1 (centres undefined),8.91
18,Cc1ccc(C(=O)Nc2ccc(F)c(F)c2F)cc1S(=O)(=O)N1CCCCC1,1.85
19,O=C(/C=C/c1ccc(Cl)c(Cl)c1)NCCCCCN1CCC(NC(=O)c2ccc3ccccc3c2)CC1,3.88
20,CC(C)(C)OC(=O)N1CCN(c2ccccc2NC(=O)c2cccc(C(F)(F)F)c2Oc2ccc(F)cc2)CC1,0.7
21,CNC(=O)c1cnc(Nc2ccc(OCC(O)CN(C)C)cc2)nc1Nc1cccc(Br)c1 (centres undefined),4.44
22,COc1ccc(N2CCN(CCCOc3ccc(NC(=O)c4cc(Cl)cc(Cl)c4)cc3)CC2)c(OC)c1,8.77
23,CC(=O)Nc1nc(C(=O)Nc2ccc(-c3cccc(-c4nc5ccccc5[nH]4)c3)cc2)cs1,6.42

row,SMILES,IFI [%]
1,C=CCn1c(=N)n(CC(O)c2ccc(Cl)c(Cl)c2)c2ccccc21 (centres undefined),2.19
2,Fc1cccc(C=NN=c2cc[nH]c3ccc(C(F)(F)F)cc23)c1,-0
3,COc1ccccc1C1CC(c2ccc(C)cc2)=NN1C(=O)c1ccccc1 (centres undefined),1.99
4,CN1CC[C@@H](Oc2cc(NC(=O)Nc3ccccc3Br)ccc2Cl)C1,1.75
5,Cc1nc(N)nc(N)c1Oc1cccc(Cl)c1,-0
6,CC(C)Sc1nncc(-c2cnnc(SC(C)C)n2)n1,-0
7,CCCOc1ccc(NC(=O)c2cccs2)cc1Cl,3.7
8,O=C(Nc1ccc(Cl)cc1)c1ccc(CN2CCCN(Cc3cccc(F)c3)CC2)cc1,9.52
9,Cc1c(C2CCN(CCCCNC(=O)c3ccc(-c4ccc(C#N)cc4)cc3)CC2)c2ccccc2n1CCO,1.83
10,Cc1cc(=NN=Cc2ccc(F)cc2)c2cccc(C)c2[nH]1,-0
11,O=C(Nc1cccc(C(F)(F)F)c1)N1CCOC(CCN2CCC(c3ccccc3)CC2)(c2ccc(Cl)c(Cl)c2)C1 (centres undefined),8.11
12,Cc1cc(N)c2cc(NC(=O)c3cccc4ccccc34)ccc2n1,0
13,CCN(CC)CCCN1CCN(C(=O)c2cccc(-c3noc(C(F)(F)F)n3)c2)CC1,0.94
14,CCN(CC)CCN(Cc1ccc(-c2ccc(C(F)(F)F)cc2)cc1)C(=O)c1ccc(-c2ccc(C#N)cc2)cc1,6.9
15,O=C(Nc1cc(Cl)cc(Cl)c1)c1cc(Cl)c(=O)n(Cc2ccc(Cl)cc2)c1,5.59
16,CC(Oc1c(C2CCN(CCCCNC(=O)c3ccc(-c4ccc(C#N)cc4)cc3)CC2)ccc2c1CCCC2)C(N)=O (centres undefined),5.71
17,O=C(Nc1cc(C(F)(F)F)cc(C(F)(F)F)c1)NC(CCCN1CCC2(CC1)OCc1ccccc12)c1ccc(Cl)c(Cl)c1 (centres undefined),10.6
18,COc1ccc(Nc2ncc3c(-c4cccc(NC(=O)c5ccccc5)c4)c[nH]c3n2)cc1OC,5.56
19,Cc1cc(O)c2c(c1)OC(C)(C)C=C2C1=CCN(Cc2ccccc2)CC1,0.72
20,CCc1c(CCNCCCCCCNC(C)Cc2ccc3c(c2CC)OCO3)ccc(OC)c1OC (centres undefined),10.7
21,CCCCCCN1CCCN(Cc2ccc(C(=O)Nc3ccc(Cl)cc3)cc2)CC1,15.2
22,CC(C)CC(NC(=O)c1cccc(OCCN2CCOCC2)c1)C(=O)NC(/C=N/NC(=O)c1ccccc1)CCc1ccccc1 (centres undefined),6.25
23,CCc1c(C)nc(-n2nc(C)cc2NC(=O)C2c3ccccc3Oc3ccccc32)[nH]c1=O,9.62

row,SMILES,IFI [%]
1,Oc1ccc(CCNc2nc(NCc3cccc(-c4cc(C(F)(F)F)ccc4Cl)c3)nc(N3CCNCC3)n2)cc1,9.38
2,CC(=O)Nc1ccc(OCCCN(Cc2ccccc2C(F)(F)F)c2ccc(C(F)(F)F)c(C#N)c2)c(Cl)c1,-0
3,CC(C)(C)CNCC(C)(C)c1nc(-c2ccc(Cl)c(O)c2)c(-c2ccncc2)[nH]1,3.62
4,Fc1ccccc1COc1ccc(Nc2ncnc3ccc(-c4nnc(C(F)(F)F)o4)cc23)cc1Cl,1.46
5,O=C(/C=C/c1ccc(-c2nc3ccc(Cl)cc3[nH]2)cc1)NC1CCN(Cc2ccccc2)CC1,1.45
6,Cc1cc(NC(=O)Nc2ccc(I)c(OCCN(C)C)c2)ccc1Br,5.8
7,CCN(CC)/C(=N/C(=N)Nc1ccc(Cl)c(Cl)c1)NCCCCCCN/C(=N\C(=N)Nc1ccc(Cl)c(Cl)c1)N(CC)CC,9.35
8,CN(C)CCOc1ccc(/C(=C(/CCCn2ccnc2)c2ccccc2)c2ccc(O)cc2)cc1,12.5
9,COc1cc(Cc2cnc(N)nc2N)cc(OCCNC(=O)OCc2ccccc2)c1OC,0.76
10,CC(C)CCN1CCCN(Cc2cccc(NC(=O)c3ccc(Cl)c(Cl)c3)c2)CC1,6.04
11,C[C@H](Cc1ccc(OCCCCCCOc2ccc(C[C@@H](C)NC(=O)[C@H](O)c3cccc(Cl)c3)cc2)cc1)NC[C@H](O)c1cccc(Cl)c1,11.3
12,N=C(N)c1cc(Br)cc(NC(=O)Nc2cc(Br)cc(C(=N)N)c2)c1,2.92
13,COc1cc(C(=O)Nc2cccc(-c3nc4ccccc4[nH]3)c2)cc(OC)c1OC,4.32
14,CN/C(=C\[N+](=O)[O-])NCCSCc1cc(C)c(CN(C)C)s1,4.38
15,COc1ccc2ncc(Cl)c(CCN3CCC(NCc4ccc5c(n4)NC(=O)CS5)CC3)c2c1,4.41
16,O=C(Nc1ccc(OC2CCN(Cc3ccc(F)cc3)C2)c(Cl)c1)c1ccccc1 (centres undefined),1.61
17,Nc1ccc(-c2ccc(NC(=O)Nc3ccccc3)cc2)cn1,1.33
18,Cc1[nH]cnc1Cc1ccc2c(c1O)c1ccccc1n2C,4.38
19,Cc1cccc(S(=O)(=O)Nc2cccc(CCN3CCC(N4CCCCC4)CC3)c2)c1,3.17
20,CCCc1cc(Cc2cnc(N)nc2N)cc(CC)c1OC,1.52
21,N#Cc1cccc(NC(=O)Nc2ccc3c(c2)CN(Cc2c[nH]c4ncccc24)C3)c1,3.4
22,Oc1ccccc1Nc1nc(NCc2ccco2)c2ccccc2n1,7.32
23,CC1(C)NC(N)=NC(=N)N1OCCCNC(=O)c1ccc(C(=O)NCCCON2C(=N)N=C(N)NC2(C)C)cc1,0.75

row,SMILES,IFI [%]
1,CCN(CC)CCCN(C(=O)Nc1cc(F)cc(F)c1)c1nc(-c2ccc(F)cc2)cs1,7.32
2,Fc1ccc2[nH]c(-c3ccc(-c4ccc(CN5CCCCC5)cc4)s3)nc2c1,2.82
3,COc1ccc2ncc(F)c(CCN3CC4CCCC4(CNCc4ccc5c(n4)NC(=O)CS5)C3)c2n1 (centres undefined),0.94
4,CC(Sc1nnc(-c2ccccc2Br)[nH]1)C(=O)Nc1ccc(F)cc1 (centres undefined),1.52
5,Nc1ccc(Nc2ccnc3ccc(C(F)(F)F)cc23)cc1O,10.1
6,Cc1ccc(-c2cccc3c(NC(=O)Nc4ccc5nccc(N6CCN(C)CC6)c5c4)cccc23)cn1,4.35
7,OC(c1ccc(Cl)cc1)(c1ccc(Cl)cc1)C(c1ccc(Cl)cc1)n1ccnc1 (centres undefined),4.84
8,CCN(c1ccc(F)cc1)S(=O)(=O)c1cc(Br)cc2c1N(C(=O)C1CC1)CC2,1.37
9,Cc1cc(F)ccc1Oc1nc(Nc2ccc(N3CCOCC3)c(F)c2)nc2c1S(=O)(=O)CCC2,-0
10,Cc1cc(N2CCCC2=O)ccc1-c1ccc(C(=O)N2CCC(Oc3cccc(Cl)c3)CC2)cc1,10.2
11,COc1cc2[nH]c(-c3ccc(O)cc3)c(C)c(=O)c2c(OC)c1OC,-0
12,CCCO[C@H](C(=O)OC)[C@@H](CC1Cc2ccccc2C1)C(=O)NCCC1=CCCCC1,2.22
13,CCCN/C=N/c1cc(-c2csc(NC(=N)N)n2)cc([N+](=O)[O-])c1,2.14
14,CCCN1CCN(CC(O)CNC(=O)Nc2ccc(Br)cc2)CC1 (centres undefined),0
15,O=C(Nc1cccc(C(F)(F)F)c1)c1ccc(S(=O)(=O)NC2CCN(CC3CCCCC3)C2)cc1 (centres undefined),4.04
16,CC(=O)c1ccc(NC(=O)Nc2ccc(N(C)c3ccnc(Nc4cccc(CS(C)(=O)=O)c4)n3)cc2)cc1,10.1
17,CN1CCc2ccc(NC(=O)Nc3cccc([N+](=O)[O-])c3)cc2C1,0.74
18,CC1(C)C(N(O)C(=O)Nc2ccc(Cl)c(Cl)c2)N(c2ccc(Cl)c(Cl)c2)C(=O)N1CCc1ccccc1 (centres undefined),7.38
19,CCCCCOc1ccc(C(O)C(CCC(CN2CCCCCC2)C(O)c2ccc(OCCCCC)cc2)CN2CCCCCC2)cc1 (centres undefined),12.9
20,CCS(=O)(=O)c1ccc(OC)c(Nc2nccc(-c3c(-c4cccc(NC(=O)c5c(F)cccc5F)c4)nn4ncccc34)n2)c1,1.46
